Source: the supplement of paper PMC8728848
Some of the results follow.

Columns and labels:
Test in all cases: glycan array binding signal (z-score within array); higher = stronger binding
Settings in all cases: glycan notation: IUPAC condensed, linker removed
[1] = biological target: Gal(b1-4)GlcNAc(b1-3)Gal(b1-4)GlcNAc(b1-3)Gal(b1-4)GlcNAc(b1-3)Gal(b1-4)GlcNAc(b1-2)Man(a1-3)[Gal(b1-4)GlcNAc(b1-3)Gal(b1-4)GlcNAc(b1-3)Gal(b1-4)GlcNAc(b1-3)Gal(b1-4)GlcNAc(b1-2)Man(a1-6)]Man(b1-4)GlcNAc(b1-4)GlcNAc
Summary of the method: (§1)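 Glycan array binding is given as a within-array Z-score, which can be read as non-binding when negative. The arrays, 3228 of them, came from the Consortium for Functional Glycomics database and were retained only where the protein sequence was available. Z-scores were averaged across arrays of the same protein sequence at different concentrations or buffers and across linkers.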

[2] = biological target: Gal(b1-4)GlcNAc(b1-3)Gal(b1-4)GlcNAc(b1-3)Gal(b1-4)GlcNAc(b1-3)Gal(b1-4)GlcNAc(b1-2)Man(a1-3)[Gal(b1-4)GlcNAc(b1-3)Gal(b1-4)GlcNAc(b1-3)Gal(b1-4)GlcNAc(b1-3)Gal(b1-4)GlcNAc(b1-2)Man(a1-6)]Man(b1-4)GlcNAc(b1-4)[Fuc(a1-6)]GlcNAc
Summary of the method: as §1

[3] = biological target: Gal(b1-4)GlcNAc(b1-3)Gal(b1-4)GlcNAc(b1-3)Gal(b1-4)GlcNAc(b1-3)Gal(b1-4)GlcNAc(b1-2)[Gal(b1-4)GlcNAc(b1-3)Gal(b1-4)GlcNAc(b1-3)Gal(b1-4)GlcNAc(b1-3)Gal(b1-4)GlcNAc(b1-6)]Man(a1-6)[Gal(b1-4)GlcNAc(b1-3)Gal(b1-4)GlcNAc(b1-3)Gal(b1-4)GlcNAc(b1-3)Gal(b1-4)GlcNAc(b1-2)Man(a1-3)]Man(b1-4)GlcNAc(b1-4)[Fuc(a1-6)]GlcNAc
Summary of the method: as §1

[4] = biological target: Gal(b1-4)GlcNAc(b1-3)Gal(b1-4)GlcNAc(b1-3)Gal(b1-4)GlcNAc(b1-3)Gal(b1-4)GlcNAc(b1-3)Gal(b1-4)GlcNAc(b1-2)Man(a1-3)[Gal(b1-4)GlcNAc(b1-3)Gal(b1-4)GlcNAc(b1-3)Gal(b1-4)GlcNAc(b1-3)Gal(b1-4)GlcNAc(b1-3)Gal(b1-4)GlcNAc(b1-2)Man(a1-6)]Man(b1-4)GlcNAc(b1-4)GlcNAc
Summary of the method: as §1

[5] = biological target: Gal(b1-4)GlcNAc(b1-3)Gal(b1-4)GlcNAc(b1-3)Gal(b1-4)GlcNAc(b1-3)Gal(b1-4)GlcNAc(b1-3)Gal(b1-4)GlcNAc(b1-2)Man(a1-3)[Gal(b1-4)GlcNAc(b1-3)Gal(b1-4)GlcNAc(b1-3)Gal(b1-4)GlcNAc(b1-3)Gal(b1-4)GlcNAc(b1-3)Gal(b1-4)GlcNAc(b1-2)Man(a1-6)]Man(b1-4)GlcNAc(b1-4)[Fuc(a1-6)]GlcNAc
Summary of the method: as §1

[6] = biological target: Gal(b1-4)GlcNAc(b1-3)Gal(b1-4)GlcNAc(b1-3)Gal(b1-4)GlcNAc(b1-3)Gal(b1-4)GlcNAc(b1-3)Gal(b1-4)GlcNAc(b1-2)[Gal(b1-4)GlcNAc(b1-3)Gal(b1-4)GlcNAc(b1-3)Gal(b1-4)GlcNAc(b1-3)Gal(b1-4)GlcNAc(b1-3)Gal(b1-4)GlcNAc(b1-6)]Man(a1-6)[Gal(b1-4)GlcNAc(b1-3)Gal(b1-4)GlcNAc(b1-3)Gal(b1-4)GlcNAc(b1-3)Gal(b1-4)GlcNAc(b1-3)Gal(b1-4)GlcNAc(b1-2)Man(a1-3)]Man(b1-4)GlcNAc(b1-4)[Fuc(a1-6)]GlcNAc
Summary of the method: as §1

[7] = biological target: Gal(b1-4)GlcNAc(b1-3)Gal(b1-4)GlcNAc(b1-3)Gal(b1-4)GlcNAc(b1-3)Gal(b1-4)GlcNAc(b1-3)Gal(b1-4)GlcNAc(b1-3)Gal(b1-4)GlcNAc(b1-2)Man(a1-3)[Gal(b1-4)GlcNAc(b1-3)Gal(b1-4)GlcNAc(b1-3)Gal(b1-4)GlcNAc(b1-3)Gal(b1-4)GlcNAc(b1-3)Gal(b1-4)GlcNAc(b1-3)Gal(b1-4)GlcNAc(b1-2)Man(a1-6)]Man(b1-4)GlcNAc(b1-4)GlcNAc
Summary of the method: as §1

[8] = biological target: Gal(b1-4)GlcNAc(b1-3)Gal(b1-4)GlcNAc(b1-3)GalNAc
Summary of the method: as §1

[9] = biological target: Gal(b1-4)GlcNAc(b1-3)Gal(b1-4)GlcNAc(b1-3)[Gal(b1-4)GlcNAc(b1-3)Gal(b1-4)GlcNAc(b1-6)]GalNAc
Summary of the method: as §1

[10] = biological target: Gal(b1-4)GlcNAc(b1-3)Gal(b1-4)GlcNAc(b1-6)[Gal(b1-3)]GalNAc
Summary of the method: as §1

[11] = biological target: Gal(b1-4)GlcNAc(b1-3)Gal(b1-4)[Fuc(a1-3)]GlcNAc(b1-3)Gal(b1-4)[Fuc(a1-3)]GlcNAc
Summary of the method: as §1

[12] = biological target: Gal(b1-4)GlcNAc(b1-3)GalNAc
Summary of the method: as §1

[13] = biological target: Gal(b1-4)GlcNAc(b1-3)[Fuc(a1-3)GlcNAc(b1-6)]Gal(b1-4)Glc
Summary of the method: as §1

[14] = biological target: Gal(b1-4)GlcNAc(b1-3)[Gal(b1-4)GlcNAc(b1-6)]Gal(b1-4)GlcNAc
Summary of the method: as §1

[15] = biological target: Gal(b1-4)GlcNAc(b1-3)[GlcNAc(b1-6)]Gal(b1-4)GlcNAc
Summary of the method: as §1

[16] = biological target: Gal(b1-4)GlcNAc(b1-6)Gal(b1-4)GlcNAc
Summary of the method: as §1

[17] = biological target: Gal(b1-4)GlcNAc(b1-6)GalNAc
Summary of the method: as §1

[18] = biological target: Gal(b1-4)GlcNAc(b1-6)[Gal(b1-3)]GalNAc
Summary of the method: as §1

[19] = biological target: Gal(b1-4)GlcNAc(b1-6)[Gal(b1-4)GlcNAc(b1-3)]GalNAc
Summary of the method: as §1

Gal(b1-4)GlcNAc6P = biological target: Gal(b1-4)GlcNAc6P
Summary of the method: as §1

Gal(b1-6)Gal = biological target: Gal(b1-6)Gal
Summary of the method: as §1

Gal3S(b1-3)GalNAc = biological target: Gal3S(b1-3)GalNAc
Summary of the method: as §1

Gal3S(b1-3)GlcNAc = biological target: Gal3S(b1-3)GlcNAc
Summary of the method: as §1

B1: HA-11100 (Pseudomonas aeruginosa), Q02G51_PSEAB (protein)
chain: QFNPNEIKISQQGKTTLIDQSTQRAIINWKGFDVSADEAVRFNQPGVTSSTLNRVTAGQESVIAGRISAPGQVIIYNSNGVVFSGSAKVDVGSLITTTANISDEHFRQGKLIFDQPGNPDARIVNDGSISVAEKGLAAFVAPSVANNGVINARLGTVAMAAGNAATIDLYG
Q: With B1 as the binder, how does the “glycan array binding signal (z-score)” value [1] read?
A: 0.355

Q: What about the “glycan array binding signal (z-score)” value [2] of the same binder?
A: 2.99

Q: And the “glycan array binding signal (z-score)” value [3]?
A: 3.24

Q: What about the “glycan array binding signal (z-score)” value [4] of the same binder?
A: 0.19

Q: And the “glycan array binding signal (z-score)” value [5]?
A: -0.136

Q: And the “glycan array binding signal (z-score)” value [6]?
A: -0.209

Q: And the “glycan array binding signal (z-score)” value [7]?
A: 1.87

Q: What about the “glycan array binding signal (z-score)” value [8] of the same binder?
A: 0.684

Q: What about the “glycan array binding signal (z-score)” value [9] of the same binder?
A: 0.853

Q: What about the “glycan array binding signal (z-score)” value [10] of the same binder?
A: 0.111

Q: And the “glycan array binding signal (z-score)” value [11]?
A: -0.329

Q: What about the “glycan array binding signal (z-score)” value [12] of the same binder?
A: -0.46

Q: What about the “glycan array binding signal (z-score)” value [13] of the same binder?
A: -0.061

Q: What about the “glycan array binding signal (z-score)” value [14] of the same binder?
A: 0.179

Q: What about the “glycan array binding signal (z-score)” value [15] of the same binder?
A: -0.011

Q: And the “glycan array binding signal (z-score)” value [16]?
A: -0.457

Q: What about the “glycan array binding signal (z-score)” value [17] of the same binder?
A: 0.612

Q: And the “glycan array binding signal (z-score)” value [18]?
A: -0.41

Q: What about the “glycan array binding signal (z-score)” value [19] of the same binder?
A: -0.292

Q: And the “glycan array binding signal (z-score)” value (Gal(b1-4)GlcNAc6P)?
A: -0.149

Q: What about the “glycan array binding signal (z-score)” value (Gal(b1-6)Gal) of the same binder?
A: -0.505

Q: What about the “glycan array binding signal (z-score)” value (Gal3S(b1-3)GalNAc) of the same binder?
A: -0.013

Q: And the “glycan array binding signal (z-score)” value (Gal3S(b1-3)GlcNAc)?
A: -0.23
